The values that follow come from US20090298769A1 (CLEVELAND CLINIC FOUNDATION, published 2009).

The target in assay [1] is T1, αvβ3 integrin on human endothelial cells (HUVEC; vessels of human prostate tissue) (human, UniProt P06756 31-1048; P05106 27-788).
T1 construct: whole, on cells; Endogenous receptor; also called vitronectin receptor
The assay can be described thus: co-immunoprecipitation (anti-β3 IP, anti-Fyn blot), HUVEC with or without VEGF.

Assay [2] has as its target T2, VEGFR-2 of human endothelial cells (HUVEC) (human, UniProt P35968).
T2 construct: whole, on cells; Endogenous, detected in cell lysates or by staining; also called VEGF receptor-2
T2 sequence (P35968 20-1356): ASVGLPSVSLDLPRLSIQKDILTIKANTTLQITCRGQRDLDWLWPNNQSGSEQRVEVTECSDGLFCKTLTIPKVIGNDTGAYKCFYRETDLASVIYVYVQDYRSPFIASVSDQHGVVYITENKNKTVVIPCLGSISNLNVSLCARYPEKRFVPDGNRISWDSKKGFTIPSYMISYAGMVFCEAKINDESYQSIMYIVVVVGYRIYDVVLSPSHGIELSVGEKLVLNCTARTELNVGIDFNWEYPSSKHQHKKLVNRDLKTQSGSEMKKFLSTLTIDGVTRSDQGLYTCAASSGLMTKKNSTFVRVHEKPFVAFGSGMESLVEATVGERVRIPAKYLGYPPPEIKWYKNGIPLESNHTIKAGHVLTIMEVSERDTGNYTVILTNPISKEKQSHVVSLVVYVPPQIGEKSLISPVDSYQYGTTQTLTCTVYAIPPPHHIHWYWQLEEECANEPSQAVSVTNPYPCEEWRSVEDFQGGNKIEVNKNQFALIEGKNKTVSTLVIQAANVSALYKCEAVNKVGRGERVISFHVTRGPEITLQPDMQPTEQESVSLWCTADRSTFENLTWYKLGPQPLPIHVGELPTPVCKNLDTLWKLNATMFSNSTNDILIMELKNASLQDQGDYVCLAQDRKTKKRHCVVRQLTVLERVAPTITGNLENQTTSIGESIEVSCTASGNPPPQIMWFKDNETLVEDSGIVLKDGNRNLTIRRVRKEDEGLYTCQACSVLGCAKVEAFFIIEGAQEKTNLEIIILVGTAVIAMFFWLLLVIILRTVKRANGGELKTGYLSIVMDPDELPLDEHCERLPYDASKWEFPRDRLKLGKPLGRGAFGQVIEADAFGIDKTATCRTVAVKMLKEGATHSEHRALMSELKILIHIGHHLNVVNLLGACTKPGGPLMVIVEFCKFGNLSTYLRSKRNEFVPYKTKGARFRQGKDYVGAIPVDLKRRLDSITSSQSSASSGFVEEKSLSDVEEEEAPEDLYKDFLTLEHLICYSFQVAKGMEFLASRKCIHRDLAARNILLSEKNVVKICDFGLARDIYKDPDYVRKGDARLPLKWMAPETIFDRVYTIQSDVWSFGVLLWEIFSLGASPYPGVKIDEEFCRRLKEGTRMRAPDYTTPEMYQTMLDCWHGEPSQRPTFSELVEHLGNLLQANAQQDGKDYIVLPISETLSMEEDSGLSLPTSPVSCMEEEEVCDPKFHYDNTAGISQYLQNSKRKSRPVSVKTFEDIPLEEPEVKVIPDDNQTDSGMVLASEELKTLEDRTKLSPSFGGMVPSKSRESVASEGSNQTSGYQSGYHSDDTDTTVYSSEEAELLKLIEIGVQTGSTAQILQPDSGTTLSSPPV
The assay can be described thus: co-immunoprecipitation (anti-VEGFR-2 IP, anti-Fyn blot), HUVEC with or without VEGF.

UniProt P06756, sequence (P06756 31-1048, chain 1 of 2): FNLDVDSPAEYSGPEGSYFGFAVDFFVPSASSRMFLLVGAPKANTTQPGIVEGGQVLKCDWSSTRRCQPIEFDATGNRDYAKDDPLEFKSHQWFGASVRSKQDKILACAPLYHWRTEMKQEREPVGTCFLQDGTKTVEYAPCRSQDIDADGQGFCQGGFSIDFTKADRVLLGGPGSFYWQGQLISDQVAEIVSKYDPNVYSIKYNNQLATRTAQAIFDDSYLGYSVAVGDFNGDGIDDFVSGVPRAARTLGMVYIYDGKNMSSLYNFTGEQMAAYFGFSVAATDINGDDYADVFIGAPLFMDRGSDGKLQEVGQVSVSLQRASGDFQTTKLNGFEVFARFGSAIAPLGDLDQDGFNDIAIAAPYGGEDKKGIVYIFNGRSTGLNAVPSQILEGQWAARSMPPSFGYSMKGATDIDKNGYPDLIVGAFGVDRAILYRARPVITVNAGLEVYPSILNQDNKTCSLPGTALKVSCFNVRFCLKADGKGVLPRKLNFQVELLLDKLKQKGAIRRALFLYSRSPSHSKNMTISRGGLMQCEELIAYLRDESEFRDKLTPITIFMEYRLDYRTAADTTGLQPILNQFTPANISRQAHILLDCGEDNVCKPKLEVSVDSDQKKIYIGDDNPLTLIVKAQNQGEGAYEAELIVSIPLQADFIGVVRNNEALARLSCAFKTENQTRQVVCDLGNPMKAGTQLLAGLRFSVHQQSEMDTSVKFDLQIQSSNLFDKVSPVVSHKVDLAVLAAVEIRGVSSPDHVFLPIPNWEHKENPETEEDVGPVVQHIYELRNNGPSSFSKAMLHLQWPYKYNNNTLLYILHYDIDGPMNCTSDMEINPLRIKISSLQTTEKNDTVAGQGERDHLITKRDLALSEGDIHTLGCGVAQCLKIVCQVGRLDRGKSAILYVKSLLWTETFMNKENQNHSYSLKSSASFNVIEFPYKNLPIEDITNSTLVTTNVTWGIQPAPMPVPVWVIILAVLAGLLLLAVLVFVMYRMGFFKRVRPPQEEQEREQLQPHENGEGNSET
UniProt P06756, sequence (P05106 27-788, chain 2 of 2, further chain): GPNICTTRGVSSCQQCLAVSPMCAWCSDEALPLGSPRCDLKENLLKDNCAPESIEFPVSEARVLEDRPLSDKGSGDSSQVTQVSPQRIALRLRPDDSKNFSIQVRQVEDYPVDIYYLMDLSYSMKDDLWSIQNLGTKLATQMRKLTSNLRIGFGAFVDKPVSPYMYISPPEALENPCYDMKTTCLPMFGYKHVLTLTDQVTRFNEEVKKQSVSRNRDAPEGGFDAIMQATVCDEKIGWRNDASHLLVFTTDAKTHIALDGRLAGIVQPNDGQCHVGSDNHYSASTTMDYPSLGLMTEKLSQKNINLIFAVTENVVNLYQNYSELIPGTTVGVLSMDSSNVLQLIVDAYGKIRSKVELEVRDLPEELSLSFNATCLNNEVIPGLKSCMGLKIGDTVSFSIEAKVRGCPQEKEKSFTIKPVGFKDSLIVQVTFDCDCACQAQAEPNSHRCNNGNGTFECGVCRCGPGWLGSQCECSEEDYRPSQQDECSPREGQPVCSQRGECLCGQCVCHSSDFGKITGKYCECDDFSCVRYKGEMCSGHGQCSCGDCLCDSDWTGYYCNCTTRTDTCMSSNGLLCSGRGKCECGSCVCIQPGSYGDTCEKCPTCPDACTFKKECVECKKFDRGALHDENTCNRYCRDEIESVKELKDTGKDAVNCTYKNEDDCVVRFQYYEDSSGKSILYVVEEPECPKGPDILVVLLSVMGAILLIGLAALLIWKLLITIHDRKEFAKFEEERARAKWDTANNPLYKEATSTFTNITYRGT

B1: Fyn of HUVEC (endogenous) (enzyme)
chain: not shown
Consider B1, for which the binding result in assay [1] and in assay [2] was “no binding” in each case.
